Measured values as given in PubChem BioAssay AID360 (National Center for Advancing Translational Sciences (NCATS), 2006).
The campaign covered roughly 48,000 compounds. About 550 (1.1%) were called active. Another 4% or so got no clear call; they are omitted. Cut-off read from the data, not from the text of the source: active = potency below about 15 µM; inconclusive = mostly about 16 µM to 33 µM; inactive = weaker than that. The list shows a part of the results.

Each molecule was assayed against Lysosomal acid glucosylceramidase (Homo sapiens) (UniProt P04062) (assay: Glucocerebrosidase). Conditions: purified enzyme, resorufin glucoside fluorescence (screen aimed at inhibitors), 20 min; series mostly up to 77 µM.
Sequence of UniProt P04062 (P04062 whole entry, looked up): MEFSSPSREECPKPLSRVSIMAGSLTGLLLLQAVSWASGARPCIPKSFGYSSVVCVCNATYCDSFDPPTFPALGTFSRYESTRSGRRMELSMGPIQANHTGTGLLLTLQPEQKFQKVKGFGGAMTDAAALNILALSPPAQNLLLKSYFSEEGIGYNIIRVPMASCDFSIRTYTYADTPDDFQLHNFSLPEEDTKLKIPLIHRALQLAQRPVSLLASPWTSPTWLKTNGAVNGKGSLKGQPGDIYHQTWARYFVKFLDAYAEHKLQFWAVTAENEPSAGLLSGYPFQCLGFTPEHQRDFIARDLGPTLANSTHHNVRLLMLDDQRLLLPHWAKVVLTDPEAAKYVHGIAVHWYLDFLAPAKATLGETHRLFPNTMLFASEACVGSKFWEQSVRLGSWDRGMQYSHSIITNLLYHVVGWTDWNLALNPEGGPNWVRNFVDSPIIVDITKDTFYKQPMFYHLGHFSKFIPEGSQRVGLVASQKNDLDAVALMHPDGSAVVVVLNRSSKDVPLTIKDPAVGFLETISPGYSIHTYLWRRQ
Summary of the method: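 Compounds titrated against 0.2 nM normal enzyme, 30 uM resorufin beta-D-glucopyranoside substrate, citrate/phosphate buffer with taurocholate and tween-20, pH 5.9. Reaction ran 20 min at room temperature; fluorescence (Ex 548/Em 600) gave AC50.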
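Note: the screen sought inhibitors.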
Potency is the fitted concentration of half-maximal effect.

Potency, inactive:
O=C(NCC(=O)N(c1ccccc1)C(C(=O)NC1CCCCC1)c1ccncc1)c1ccco1 (configuration not stated) > 76.9 µM
O=C(O)C1CCCN1S(=O)(=O)c1ccc2ccccc2c1 (configuration not stated) > 76.9 µM
O=C1Nc2cc(C(=O)N3CCOCC3)ccc2SC1N1CCOCC1 (configuration not stated) > 76.9 µM
CC(C)COC(=O)n1c(=O)oc2cc(S(=O)(=O)N3CCCCC3)ccc21 > 76.9 µM
CCS(=O)(=O)NCCc1cc2c(OC)ccc(OC)c2[nH]c1=O > 76.9 µM
O=C(NCCCn1ccnc1)C(F)(F)C(F)(F)C(=O)NCCCn1ccnc1 > 76.9 µM
Cc1nc(SCC(=O)c2c[nH]c3ccccc23)n[nH]1 > 76.9 µM
Cn1c(SCCS(=O)(=O)c2ccc(Cl)cc2)nnc1-c1ccccc1 > 76.9 µM
Cc1nnc(SCCN2CCOCC2)n1-c1cccc(Cl)c1 > 76.9 µM
O=C(COc1ccc(S(=O)(=O)NCCc2ccccc2)cc1)N1CCCC1 > 76.9 µM
CCOC(=O)C1CCN(C(=O)c2ccc(NC(=O)C3CCCO3)cc2)CC1 (configuration not stated) > 76.9 µM
O=C(CSc1nnc(-c2ccco2)n1-c1ccccc1)NCc1ccc2c(c1)OCO2 > 76.9 µM
Cn1c(C(=O)N2CCc3ccccc32)cc2c(=O)n3ccccc3nc21 > 76.9 µM
CCOC(=O)C1CCN(C(=O)c2cc(OCC)c(OCC)c(OCC)c2)CC1 > 76.9 µM
c1ccc(CCc2nn3c(Cc4ccccc4)nnc3s2)cc1 > 76.9 µM
O=C1c2ccccc2C(=O)N1CCOCCN1C(=O)c2ccccc2C1=O > 76.9 µM
COc1ccc(N(C(=O)c2ccco2)S(=O)(=O)c2cc(OC)ccc2OC)cc1 > 76.9 µM
Cn1c(SCC(=O)Nc2nccs2)nnc1-c1ccncc1 > 76.9 µM
O=C(C1CCN(S(=O)(=O)N2CCOCC2)CC1)N1CCN(Cc2ccc3c(c2)OCO3)CC1 > 76.9 µM
CSc1nncc(-c2ccc(F)cc2)n1 > 76.9 µM
O=C(c1ccc(F)cc1)N1CCCCC(Sc2nnc3ccccn23)C1=O (configuration not stated) > 76.9 µM
O=C(CCS(=O)(=O)c1ccc(Cl)cc1)OCC(=O)N1CCCCC1
CCCCn1c(N)c(N(CCC(C)C)C(=O)COC(=O)c2ccco2)c(=O)[nH]c1=O > 76.9 µM
CCOC(=O)N1CCN(C(=O)c2cnn3c(C(F)F)cc(-c4ccc(C)cc4)nc23)CC1 > 76.9 µM
CCN(CC)C(=O)C1=C(C)NC(=O)NC1c1ccccc1F (configuration not stated) > 76.9 µM
O=C(CSc1nnc(-c2cccs2)n1-c1ccccc1)NCc1ccco1
Cc1cc(-c2ccco2)n(-c2ccccc2)n1 > 76.9 µM
N#Cc1ccc(CSc2nnc(-c3cccc(S(=O)(=O)N4CCCCC4)c3)o2)cc1 > 76.9 µM
CCSc1nnc(-c2ccccc2NC(=O)CC)c(=O)[nH]1 > 76.9 µM
O=C(NCCc1cn2ccccc2n1)c1ccccc1F > 76.9 µM
CCC(=Nc1ccc(N)cc1)C1=C(O)C(C(=O)OC)C(C)(C)CC1=O (configuration not stated) > 76.9 µM
O=C(OCc1cc2ccccc2[nH]c1=O)c1ccco1 > 76.9 µM
COc1cccc(CN2CCN(c3cccc(C(F)(F)F)c3)CC2)c1OC > 76.9 µM
CC1CC(C)CN(CCCNC(=O)Cc2c(C(=O)O)[nH]c3ccccc23)C1 (configuration not stated) > 76.9 µM
CCOc1ccc(C2C(=O)N(C3CCCCC3)CC(=O)N2CC2CCCO2)cc1OC (configuration not stated) > 76.9 µM
O=C(O)C1CCN(S(=O)(=O)c2ccc(Oc3ccccc3)cc2)CC1 > 76.9 µM
CCCCCC(=O)N(CN1C(=O)CCC1=O)c1ccccc1 > 76.9 µM
O=C(Nc1ccccc1Cl)N1CCN(c2ncccn2)CC1 > 76.9 µM
COc1ccc(S(=O)(=O)Nc2ccc(CC#N)cc2)cc1 > 76.9 µM
CCn1c(COc2ccc(C)cc2)nnc1SCC(=O)Nc1ccc(S(N)(=O)=O)cc1 > 76.9 µM
C=CCn1c(SCc2ccc(C(=O)OC)cc2)nnc1-c1sc(N)nc1C > 76.9 µM
COc1ccc(OC)c(NC(=O)Cn2c(CCC(=O)O)ccc2-c2cccs2)c1 > 76.9 µM
O=C(Nc1ccccc1)c1ccc(S(=O)(=O)NCC2CCCO2)cc1 (configuration not stated) > 76.9 µM
COc1ccccc1NC(=O)CC(=O)CSc1nnc(-c2ccc(C)cc2)n1C > 76.9 µM
COc1cc(NS(=O)(=O)N2CCCC2)cc(OC)c1OC > 76.9 µM
N#CCCN(C(=O)Nc1ccc(Cl)cc1)c1ccccc1 > 76.9 µM
Cc1cc(NCCN2CCOCC2)n2ncc(-c3ccc(Cl)cc3)c2n1
O=C(CCC1COc2ccccc2O1)Nc1ncccc1O (configuration not stated) > 76.9 µM
Cc1ccc(-c2cc(C(=O)NCc3cccnc3)no2)cc1 > 76.9 µM
N#Cc1nn(-c2ccccc2)nc1N1CCCCC1 > 76.9 µM
O=C(O)C1C2C=CC(C2)C1C(=O)NC1CCN(Cc2ccccc2)CC1 (configuration not stated) > 76.9 µM
CC(C)CCNC(=O)COc1ccc2c3c(c(=O)oc2c1)CCC3 > 76.9 µM
O=C(O)COc1ccc(C(=O)Cc2ccc3c(c2)OCCCO3)c(O)c1 > 76.9 µM
CCOCCn1c(N2CCN(c3ccccc3)CC2)nc2c1c(=O)n(C)c(=O)n2C > 76.9 µM
CSc1nnc(Cn2c(=O)sc3ccccc32)n1-c1cccc(Cl)c1 > 76.9 µM
CCC(=O)Nc1cccc(-c2cn3ccsc3n2)c1 > 76.9 µM
Cc1nc2nc[nH]n2c(=O)c1NC(=O)CCc1ccccc1 > 76.9 µM
O=C(NCCN1CCCC1)C1COc2ccccc2O1 (configuration not stated) > 76.9 µM
Cc1csc2nnc(N)n12 > 76.9 µM
O=C(CN1CCc2ccccc21)Nc1ccc2c(c1)OCO2 > 76.9 µM
COc1ccc(NC(=O)CSc2c(C)nn(-c3nnc(C)c(=O)[nH]3)c2C)cc1 > 76.9 µM
CCN(CC)CCNC(=O)Cn1cnc2sc(C)c(S(=O)(=O)N3CCOCC3)c2c1=O > 76.9 µM
COc1ccc(C(=O)Cn2c(N3CCOCC3)nc3c2c(=O)n(C)c(=O)n3C)cc1 > 76.9 µM
O=C(CN(Cc1cccs1)C(=O)CNS(=O)(=O)c1ccccc1)NCc1ccco1 > 76.9 µM
CCC(C(=O)NC1CCCC1)N(Cc1ccco1)C(=O)Cn1nnc(-c2ccc(C)cc2)n1 (configuration not stated) > 76.9 µM
O=C(Cn1c(=O)[nH]c2ccsc2c1=O)NC1CCCCC1 > 76.9 µM
Cc1cccc(NC(=O)c2ccc(S(=O)(=O)N(C)C)cc2)n1 > 76.9 µM
O=C(Nc1ccc(-n2nncc2-c2ccco2)cc1)c1cc2ccccc2oc1=O > 76.9 µM
CCC1CCCCN1C(=O)c1nn2cccnc2c1Cl (configuration not stated) > 76.9 µM
CN(C)c1oc(-c2ccccc2)nc1C#N > 76.9 µM
COc1ccc(N(CC(=O)NCc2cccs2)S(=O)(=O)c2c(C)n[nH]c2C)cc1 > 76.9 µM
COC(=O)c1cccc(NC(=O)CSc2nc3cccnc3n2C)c1 > 76.9 µM
c1ccc2c(c1)nc1n2CCS1 > 76.9 µM
CCOc1ccc(N2C(=O)CC(NCc3ccc(F)cc3)C2=O)cc1 (configuration not stated) > 76.9 µM
CCOc1ccc(-n2c(Cc3cc(=O)[nH]c(=O)[nH]3)nnc2SCC)cc1 > 76.9 µM
COc1ccc(-c2[nH]nc3c2C(c2ccc(OC(=O)N4CCOCC4)cc2)C(C#N)=C(N)O3)cc1 (configuration not stated) > 76.9 µM
Cc1csc(=Nc2c(C)n(C)n(-c3ccccc3)c2=O)n1Cc1ccccc1 > 76.9 µM
CN(Cc1ccco1)C(=O)C1CCC(=O)N1Cc1ccc(F)cc1 (configuration not stated) > 76.9 µM
CCC(Sc1nnc(-c2ccc(C)c(Cl)c2)n1CC)C(=O)Nc1nccs1 (configuration not stated) > 76.9 µM
Cc1[nH]c2c(Cl)cccc2c(=O)c1CN1CCCC1 > 76.9 µM
O=C(O)CCc1nc(-c2ccccc2)no1 > 76.9 µM
O=C(NCc1ccco1)NCC(F)(F)F > 76.9 µM
COC(=O)C1=C(CSc2nc3ccccc3o2)NC(=O)NC1c1cc(C)ccc1C (configuration not stated) > 76.9 µM
CCOc1ccc(-n2c(Cc3cc(=O)[nH]c(=O)[nH]3)nnc2SC(C)C)cc1 > 76.9 µM
COc1cccc(-n2ccnc2SCC(=O)Nc2ccccc2)c1 > 76.9 µM
Nc1cc(=O)[nH]c(=O)n1Cc1ccco1 > 76.9 µM
COP(C)(=O)c1c(C)nn(-c2ccccc2)c1C (configuration not stated) > 76.9 µM
O=C(CNC1CCCCCC1)Nc1ccc(S(=O)(=O)NC2CC2)cc1 > 76.9 µM
CCOC(=O)Cn1c(N)c(C(=O)OC)sc1=S
COc1ccc(C(=O)NCC(C)CN(C)C)cc1 (configuration not stated) > 76.9 µM
CCS(=O)(=O)Nc1ccc2c(c1)N(C(C)=O)c1ccccc1CC2 > 76.9 µM
Fc1ccc(-c2nnc3sc(C4COc5ccccc5O4)nn23)cc1 (configuration not stated) > 76.9 µM
